Laboratory results reported in the RNAGym collection of RNA variant scans (doi:10.1093/nar/gkz1192).
Read counts are not given, so values of variants with three or more changes are uncertain.

B1: CPEB3 Ribozyme (parent)
chain: UAACAGGGGGCCACAGCAGAAGCGUUCACGUCGCAGCCCCUGUCAGAUUCUGGUGAAUCUGCGAAUUCUGCUGUAUAUCUC

Variants of: B1
Assay: self-cleavage, relative activity (ratio to wild type); higher = more cleavage; in vitro, sequencing
Procedure, shortened: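 CPEB3 self-cleaving ribozyme mutant libraries were made by rounds of error-prone PCR, barcoded, and transcribed in vitro with T7 RNA polymerase for 5 hours at 37°C. Cleavage occurred during transcription and a 15 min DNase I step before EDTA stop. RNAs were reverse transcribed with template switching and Illumina-sequenced, with DNA sequencing mapping barcodes to variants. Relative activity is the variant's cleaved/total read fraction divided by wild type's (minimum 5 reads), averaged across three batches.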

Row | Variant | self-cleavage
1 | U25C A28U A64U | 0.48
2 | U25C A28U C32A A35G A56G | 0.16
3 | U25C A28U C37A U43C U54A A57G | 0.08
4 | U25C A28U U41A | 0.19
5 | U25C A28U U41A G61A | 0.29
6 | U25C A28U U41C | 0.13
7 | U25C A28U U41C U43C U58C A65G | 0.05
8 | U25C A28U U48C | 0.14
9 | U25C A28U U49C | 0.08
10 | U25C A28U U58A | 0.53
11 | U25C A35C U67C | 0.07
12 | U25C A35G A45U U80A | 0.12
13 | U25C A35G A47G A75U U80C | 0.26
14 | U25C A35G A47G U69A | 0.17
15 | U25C A35G A57C | 0.39
16 | U25C A35G A57U A77G | 0.14
17 | U25C A35G A64U | 0.12
18 | U25C A35G A77G | 0.33
19 | U25C A35G C39G U41C A64G G73A | 0.08
20 | U25C A35G C40U C50U | 0.19
21 | U25C A35G C40U G55U | 0.24
22 | U25C A35G U41A C62A | 0.31
23 | U25C A35G U43C U67C U72C | 0.15
24 | U25C A35G U48C U60C | 0.18

Row | Variant | self-cleavage
25 | U25C A35G U49A U54A U60A | 0.19
26 | U25C A35G U49A U60A A64G | 0.25
27 | U25C A35G U58C U69C | 0.12
28 | U25C A35G U78C | 0.3
29 | U25C A35U A47C | 0.1
30 | U25C A35U A47G U51A U69A | 0.47
31 | U25C A35U A47U U49C A56U U58C U74C | 0.04
32 | U25C A35U A56G A57C | 0.08
33 | U25C A35U A75G U78C | 0.1
34 | U25C A35U C50A A56G U60C U66C U76A | 0.05
35 | U25C A35U C62G | 0.17
36 | U25C A35U C71A | 0.06
37 | U25C A35U G36U U43C G53A | 0.07
38 | U25C A35U G42A | 0.47
39 | U25C A35U G46U U58A U67C | 0.07
40 | U25C A35U U41A A75U | 0.1
41 | U25C A35U U41C A56U U69C | 0.06
42 | U25C A35U U41C A64G U67C U69A | 0.06
43 | U25C A35U U43A A57G U58C U78C | 0.15
44 | U25C A35U U43C U67C U74A A77G | 0.08
45 | U25C A35U U48A U80C | 0.57
46 | U25C A35U U51A U74C | 0.14
47 | U25C A35U U51C | 0.22
48 | U25C A35U U72A | 0.09

Row | Variant | self-cleavage
49 | U25C A35U U76C | 0.16
50 | U25C A45C U51C U72C | 0.09
51 | U25C A45C U60A | 0.08
52 | U25C A45C U60C A65G U74C | 0.14
53 | U25C A45G A47G A56G A57G U58A U72C | 0
54 | U25C A45G A47G U60C C68U | 0.24
55 | U25C A45G A56G U66C | 0.31
56 | U25C A45G A56U | 0.24
57 | U25C A45G G63A | 0.61
58 | U25C A45G G70A | 0.2
59 | U25C A45G U51A U78C | 0.15
60 | U25C A45G U60A A64G | 0.18
61 | U25C A45G U60C | 0.27
62 | U25C A45G U66C | 0.12
63 | U25C A45G U69A | 0.49
64 | U25C A45U A47U A75U | 0.19
65 | U25C A45U A47U U54C A75G | 0.09
66 | U25C A45U A64U | 0.08
67 | U25C A45U G55U U78G | 0.11
68 | U25C A45U G63C | 0.24
69 | U25C A45U G63U | 0.24
70 | U25C A45U U48C C50U U67A | 0.04
71 | U25C A45U U49A U69A | 0.09
72 | U25C A45U U54C U78C | 0.4

Row | Variant | self-cleavage
73 | U25C A45U U58C U72C U74C | 0.15
74 | U25C A45U U60G A64G | 0.08
75 | U25C A47G A56G | 0.52
76 | U25C A47G A57U | 0.11
77 | U25C A47G U60A | 0.15
78 | U25C A47G U60C | 0.19
79 | U25C A47G U67C | 0.22
80 | U25C A47G U67C U69C U72C | 0.13
81 | U25C A47G U76C | 0.26
82 | U25C A47G U80C | 0.32
83 | U25C A47U U51A U72A | 0.16
84 | U25C A47U U60A | 0.15
85 | U25C A56G U58A | 0.18
86 | U25C A56G U67C | 0.08
87 | U25C A56U G70C | 0.09
88 | U25C A56U U76C | 0.43
89 | U25C A57C A65G U66G U76A U80C | 0.08
90 | U25C A57C A77G | 0.1
91 | U25C A57G U58C U60A A65G U74A A75G | 0.05
92 | U25C A57G U66C U67A C79A U80C | 0.12
93 | U25C A57G U67A | 0.17
94 | U25C A57G U72A | 0.13
95 | U25C A57G U76C U80C | 0.23
96 | U25C A64G A65G | 0.47

Row | Variant | self-cleavage
97 | U25C A65G U67A | 0.21
98 | U25C A65G U67C | 0.17
99 | U25C A65G U69A | 0.08
100 | U25C A65U U67A | 0.11
101 | U25C C27A A35G U60C U80G | 0.05
102 | U25C C27A A64G | 0.42
103 | U25C C27A A64G U80C | 0.52
104 | U25C C27A G30U A77G | 0.09
105 | U25C C27A U31C C44A | 0.08
106 | U25C C27A U41A U51A A64U U80C | 0.64
107 | U25C C27A U66C | 0.19
108 | U25C C27G A45G U51C U67A | 0
109 | U25C C27U C50U U54C U67A | 0.05
110 | U25C C27U U41G A47G U72A | 0.05
111 | U25C C27U U51C | 0.35
112 | U25C C27U U60C | 0.23
113 | U25C C29A C38A U67C | 0.06
114 | U25C C29A U54C U60C U78C | 0.27
115 | U25C C29G U66A U76C | 0.2
116 | U25C C29U C32U A75C | 0.06
117 | U25C C29U G73A | 0.28
118 | U25C C29U U72C | 0.13
119 | U25C C29U U78A | 0.21
120 | U25C C32A C38U U69C | 0.06

Row | Variant | self-cleavage
121 | U25C C32G G52A U60A U67A C81U | 0.03
122 | U25C C32G U41C U54C | 0.22
123 | U25C C32U A65G U80C | 0.11
124 | U25C C32U C34U U43C | 0.19
125 | U25C C32U U48C A56U A75C | 0.07
126 | U25C C32U U51C | 0.7
127 | U25C C34A A47G C79A | 0.23
128 | U25C C34A A56G | 0.24
129 | U25C C34A C39A C50G U54A U60A | 0.17
130 | U25C C34A U41A A57G | 0.21
131 | U25C C34U A77U | 0.09
132 | U25C C37A A45G | 0.13
133 | U25C C37A C40U U49C | 0.18
134 | U25C C37A G42U A64G U76A | 0.04
135 | U25C C37A U60A C71U U72C | 0.04
136 | U25C C37U G46U | 0.21
137 | U25C C37U U78C | 0.21
138 | U25C C38G C39U C68A U78A | 0.04
139 | U25C C38U A64G | 0.25
140 | U25C C38U G46U A57U U60A U66C | 0.03
141 | U25C C38U U41C U51A | 0.21
142 | U25C C39A A45G U74C | 0.2
143 | U25C C39A A64U U66C U67A | 0.07
144 | U25C C39A U60C | 0.2

Row | Variant | self-cleavage
145 | U25C C39U C40U U69C A77G | 0.12
146 | U25C C40U U51A C71U | 0.08
147 | U25C C40U U67A | 0.2
148 | U25C C40U U67G U76C A77G | 0.28
149 | U25C C62A U78C | 0.14
150 | U25C C62G A65G | 0.42
151 | U25C C62U U78C | 0.1
152 | U25C G30A A35U U66C U72C | 0.13
153 | U25C G30A A45U A75G | 0.08
154 | U25C G30A A45U G46A A75G | 0.13
155 | U25C G30A U49A A56G U67C U72C U80C | 0.14
156 | U25C G30U U41A U43C A45U A75G A77U | 0.1
157 | U25C G30U U41C A75U | 0.34
158 | U25C G33A A35G | 0.15
159 | U25C G33A A35U G63A | 0.15
160 | U25C G33A C37G U54G C59G | 0.17
161 | U25C G33A G63U C79U | 0
162 | U25C G33A U48C A75U U78C | 0.12
163 | U25C G33A U78C | 0.38
164 | U25C G33C U43G U54A | 0.07
165 | U25C G33C U49A U51A U67C A77U | 0.11
166 | U25C G33U U41C A56G | 0.36
167 | U25C G33U U49C G63A | 0.15
